Over roughly 4,100 sequences, “relative CpG methylation activity (normalised to average over all NNNCGNNN flanks)” has its median near 0.94; the highest 2% begin near 1.9. The list shows a part of the results.
Target: DNMT3B catalytic domain (mouse) (UniProt O88509)
Assay: relative CpG methylation activity (normalised to average over all NNNCGNNN flanks) (relative (1 = mean)); higher = more methylation of the central CpG
Settings: system: in vitro, murine catalytic domain; CpG state: hemimethylated substrate pool; residues: 558-859
Outline: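 Murine DNMT3A or DNMT3B catalytic domain methylated pooled dsDNA substrates, each carrying a central CpG within 10 random flanking nucleotides, with 0.8 mM S-adenosyl-L-methionine in HEPES pH 7.5 buffer at 37 °C for 60 min. Proteinase K treatment, BsaI-HFv2 digestion, hairpin ligation, bisulfite conversion and two-step PCR preceded Illumina sequencing. Relative methylation activity is the average methylation of a flanking context divided by the mean across all contexts, where a context spans three bases on each side, and every experiment was repeated twice independently.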

UniProt O88509, sequence (O88509 558-859): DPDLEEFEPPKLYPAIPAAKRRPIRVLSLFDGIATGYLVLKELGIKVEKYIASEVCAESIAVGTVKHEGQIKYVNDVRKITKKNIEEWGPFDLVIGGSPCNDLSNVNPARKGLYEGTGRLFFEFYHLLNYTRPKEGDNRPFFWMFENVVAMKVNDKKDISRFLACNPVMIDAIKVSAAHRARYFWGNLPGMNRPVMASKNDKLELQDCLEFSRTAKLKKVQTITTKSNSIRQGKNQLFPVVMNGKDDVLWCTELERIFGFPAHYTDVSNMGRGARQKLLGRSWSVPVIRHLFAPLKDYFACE

Sequence | relative CpG methylation activity
CGTCGGAA | 0.691
GTACGTGG | 0.725
AGGCGTCT | 0.521
CATCGCTG | 0.624
TTACGCTC | 1.73
CCACGTTC | 1.14
TGGCGGAC | 0.639
CATCGTTT | 0.449
CTCCGTAT | 0.722
TCACGCCA | 1.28
GTTCGACA | 1.29
TCTCGCTT | 0.839
AGGCGCGG | 0.295
TGGCGTTA | 0.413
GGCCGTTT | 0.256
ATCCGTCC | 1.35
GTCCGTGT | 0.311
TACCGTCA | 0.555
CATCGTAC | 1.09
AGGCGAAC | 0.555
GTACGTTG | 0.964
TCACGGAC | 1.27
CCACGCGT | 1.03
TGACGTTG | 0.612
CCCCGCTT | 1.01

Sequence | relative CpG methylation activity
ACTCGCGC | 0.741
TTGCGCAT | 0.766
CGACGACG | 0.927
AGTCGACC | 1.54
GCACGCAG | 0.749
TATCGCCC | 1.03
TATCGGCG | 1.79
TCTCGGCT | 1.8
CGCCGTGA | 0.212
CAGCGTCA | 0.82
CGACGAAG | 0.749
TTTCGATC | 1.95
GTTCGCGC | 0.723
ACTCGTCA | 0.659
GAACGTAG | 0.908
CGCCGCCG | 0.493
ATGCGCGG | 0.718
ATACGTTT | 1.1
CCGCGCCG | 0.82
CGTCGTAT | 0.345
CAACGTGA | 0.699
CTTCGGCT | 1.9
CGGCGCGC | 0.42
AGACGGTC | 1.51
ACCCGGGC | 1.61

Sequence | relative CpG methylation activity
TTACGCCA | 1.78
GCACGTCC | 1.07
AGTCGACG | 0.986
TAACGGTG | 1.38
TGGCGCAA | 0.0734
GGCCGTAG | 0.142
AGCCGAGC | 1.24
TGTCGAGA | 1.03
GAGCGAAC | 0.932
GAGCGTCA | 0.656
ACACGAGA | 1.76
ACACGAGC | 1.79
GAACGTCG | 1.04
CGACGGGC | 1.39
TTACGCGC | 1.81
AATCGGGC | 1.55
TCACGGCA | 1.82
CCGCGATC | 1.06
AAGCGTTG | 0.377
CATCGAGC | 1.72
CTCCGGTC | 1.8
TCACGGTA | 1.49
CAGCGTAG | 0.472
TCTCGAAC | 1.66
CCTCGTAT | 0.458

Sequence | relative CpG methylation activity
TAGCGCTG | 0.548
ACTCGTTT | 0.42
TCCCGAAT | 1.55
ATTCGAAC | 1.69
ACGCGCAT | 0.61
CCACGAGT | 1.6
CGCCGGGA | 0.833
CACCGAGT | 1.51
GTACGAAC | 1.8
TAACGAGT | 1.49
GCCCGTGG | 0.247
GCACGCTA | 0.861
TCTCGCTC | 1.02
TTGCGGCT | 1.95
ACGCGAAA | 0.904
GACCGCTG | 0.533
GCGCGCGG | 0.613
TTTCGGTG | 1.25
ATACGATT | 1.74
GTGCGCCC | 0.931
TCACGCCG | 1.47
AGTCGGTA | 1.22
ACACGTAG | 0.727
CCTCGAGA | 1.39
TCTCGGCA | 1.58

Sequence | relative CpG methylation activity
TCACGCGA | 0.767
GCACGCAC | 0.888
CGGCGTTC | 0.581
CTGCGGGG | 1.25
CATCGCAC | 0.75
GACCGTTA | 0.198
GGTCGTTC | 0.711
AAGCGCAT | 0.493
TGTCGCAC | 0.652
TCCCGCAA | 0.636
AATCGGAA | 0.631
TAGCGGGG | 0.665
AGTCGTGT | 0.154
TGGCGCTA | 0.336
GCACGGAT | 0.853
CCCCGAGG | 1.5
ATCCGCAT | 0.618
GCTCGAAC | 1.13
TCCCGACC | 1.46
GTCCGACC | 1.63
TCTCGTTC | 0.902
ACACGGTT | 1.27
GGACGCTG | 0.649
TCTCGAGC | 1.53
ACACGTTT | 0.779

Sequence | relative CpG methylation activity
GATCGAGG | 1.38
AATCGGAT | 0.83
GATCGGGT | 1.25
GTCCGGGG | 1.06
GTACGTTT | 1.13
TCCCGTCG | 0.762
AGGCGCCC | 0.477
CCCCGGTC | 1.46
ACACGGGC | 1.54
CTTCGTCA | 0.841
CGCCGAGA | 1.26
CGCCGTCT | 0.601
GGGCGTGT | 0.309
GAGCGGCC | 1.2
CTACGGTT | 1.76
AGGCGGCG | 0.992
TTGCGGTG | 1.47
GGTCGTTA | 0.214
GCGCGTGT | 0.226
CTACGCTG | 1.24
CCCCGCTA | 0.989
CTTCGGCG | 1.67
CTGCGCGA | 0.74
TCACGAGG | 1.7
TAACGTTG | 0.892

Sequence | relative CpG methylation activity
CCGCGAGC | 1.39
CAACGATT | 1.76
AATCGACC | 1.26
TGGCGAGA | 1.16
GGGCGAGC | 1.61
GTACGTCG | 1.34
TTCCGAGG | 1.42
ATCCGTAT | 0.427
TCGCGTCG | 0.591
CTTCGCAA | 0.702
TTCCGAAT | 1.58
GGTCGGTC | 1.31
CTCCGACG | 1.19
GACCGCTA | 0.515
AGGCGCAG | 0.465
GAGCGCAT | 0.379
AAGCGAGG | 0.891
GATCGAGA | 1.31
ATACGGTC | 1.68
AAACGGAA | 1.15
ACGCGTGG | 0.317
ATTCGCCC | 1.02
TACCGACC | 1.06
TCTCGAGT | 1.45
ATACGAGA | 1.82

Sequence | relative CpG methylation activity
GTCCGCAT | 0.563
AAACGTCT | 1.02
AGTCGCTT | 0.812
CCGCGTCA | 0.831
AATCGAAG | 1.23
CGCCGGAC | 0.668
TAGCGAGA | 1.18
CGACGATT | 1.37
TATCGCGG | 0.48
CAACGACC | 1.51
AATCGAAA | 1.44
AATCGGGG | 1.17
GTACGCAT | 0.898
GGCCGAGT | 1.04
GCGCGAGG | 1.09
AGCCGGAT | 0.421
TGTCGACT | 1.15
GTACGACG | 1.55
CCGCGAAC | 1.18
ACGCGCCG | 0.767
TGTCGCCA | 0.888
TCCCGCAG | 0.521
CAACGGCG | 1.75
ACTCGGGG | 1.19
AAGCGTAC | 0.816

Sequence | relative CpG methylation activity
CCTCGCTT | 0.633
TATCGCCG | 0.876
ATCCGCTA | 0.919
GCACGTGA | 0.543
CCCCGGGG | 1.48
TACCGTTT | 0.367
TCACGATC | 1.73
TTGCGTCT | 0.804
TAGCGCAC | 0.618
GGCCGCGC | 0.361
CACCGCTT | 0.521
CTTCGCCG | 1.13
GCCCGTCC | 1
AGTCGAAA | 1.28
CCCCGGGT | 1.23
ATCCGCTG | 0.856
TAGCGTCG | 0.463
ACTCGTGA | 0.374
CGGCGGGT | 0.576
